Results from article PMC5342809.
No constants are given. Whether binding was seen depends on the method and setting. In cells and extracts the contact can be indirect. Some binding calls cover weakened binding; strength is not graded here. For part of these data: Where a sequence is shown, tags or fusion partners need not be part of it.

Experiments:
[1] = target: T1, Smad anchor for receptor activation (SARA) (endogenous) (human (endogenous in HCT116)) (UniProt O95405); assay: co-IP; endogenous proteins from NP40 lysates of HCT116 cells precipitated with anti-Smad3, anti-TβRI or anti-SARA antibody, normal IgG as control, overnight at 4°C; also with Kindlin-1 siRNA, Kindlin-1 overexpression or re-expression, and TGF-β1 stimulation
T1 sequence: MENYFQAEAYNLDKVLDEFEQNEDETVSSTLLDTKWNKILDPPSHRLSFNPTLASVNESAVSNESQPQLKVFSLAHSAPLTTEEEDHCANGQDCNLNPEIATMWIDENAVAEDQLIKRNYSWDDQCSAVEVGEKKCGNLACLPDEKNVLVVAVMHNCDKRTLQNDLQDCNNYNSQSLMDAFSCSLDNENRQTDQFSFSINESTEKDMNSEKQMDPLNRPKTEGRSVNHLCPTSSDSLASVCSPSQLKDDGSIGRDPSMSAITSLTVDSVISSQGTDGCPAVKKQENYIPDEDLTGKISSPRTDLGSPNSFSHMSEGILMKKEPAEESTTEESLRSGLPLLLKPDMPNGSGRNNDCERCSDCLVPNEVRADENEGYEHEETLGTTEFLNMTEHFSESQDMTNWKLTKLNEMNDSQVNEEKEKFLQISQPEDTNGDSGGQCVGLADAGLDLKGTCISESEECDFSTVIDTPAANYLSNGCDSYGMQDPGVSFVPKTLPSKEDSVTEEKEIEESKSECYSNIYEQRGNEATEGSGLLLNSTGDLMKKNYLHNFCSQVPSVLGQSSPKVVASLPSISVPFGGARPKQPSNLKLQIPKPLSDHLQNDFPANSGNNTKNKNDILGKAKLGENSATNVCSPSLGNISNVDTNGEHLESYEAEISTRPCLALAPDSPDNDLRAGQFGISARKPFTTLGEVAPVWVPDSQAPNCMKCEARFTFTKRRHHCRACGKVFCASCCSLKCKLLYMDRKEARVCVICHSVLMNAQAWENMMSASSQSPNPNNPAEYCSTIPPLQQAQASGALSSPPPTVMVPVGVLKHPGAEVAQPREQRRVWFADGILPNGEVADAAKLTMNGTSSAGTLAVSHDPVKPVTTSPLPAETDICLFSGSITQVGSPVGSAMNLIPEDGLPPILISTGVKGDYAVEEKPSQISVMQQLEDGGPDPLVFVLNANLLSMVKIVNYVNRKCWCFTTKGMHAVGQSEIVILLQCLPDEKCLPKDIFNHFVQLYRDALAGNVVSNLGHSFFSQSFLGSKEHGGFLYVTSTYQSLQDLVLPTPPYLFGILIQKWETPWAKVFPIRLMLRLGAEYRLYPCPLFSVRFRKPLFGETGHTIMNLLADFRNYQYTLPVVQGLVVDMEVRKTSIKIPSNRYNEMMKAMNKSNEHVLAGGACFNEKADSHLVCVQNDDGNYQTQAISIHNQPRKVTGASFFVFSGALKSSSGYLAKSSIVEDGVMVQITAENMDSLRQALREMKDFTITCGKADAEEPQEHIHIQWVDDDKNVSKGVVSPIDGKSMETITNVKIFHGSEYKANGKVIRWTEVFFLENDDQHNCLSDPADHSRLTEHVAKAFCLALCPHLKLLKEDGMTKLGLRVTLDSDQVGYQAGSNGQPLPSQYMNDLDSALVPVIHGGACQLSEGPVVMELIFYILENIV

Flag-Kindlin-1 = target: T2, Flag-Kindlin-1 (UniProt Q9BQL6); assay: co-IP; anti-Flag antibody on NP40 lysates of HCT116 cells transfected with Flag-Kindlin-1 or its truncations; endogenous partners detected by immunoblot; overnight at 4°C
T2 sequence: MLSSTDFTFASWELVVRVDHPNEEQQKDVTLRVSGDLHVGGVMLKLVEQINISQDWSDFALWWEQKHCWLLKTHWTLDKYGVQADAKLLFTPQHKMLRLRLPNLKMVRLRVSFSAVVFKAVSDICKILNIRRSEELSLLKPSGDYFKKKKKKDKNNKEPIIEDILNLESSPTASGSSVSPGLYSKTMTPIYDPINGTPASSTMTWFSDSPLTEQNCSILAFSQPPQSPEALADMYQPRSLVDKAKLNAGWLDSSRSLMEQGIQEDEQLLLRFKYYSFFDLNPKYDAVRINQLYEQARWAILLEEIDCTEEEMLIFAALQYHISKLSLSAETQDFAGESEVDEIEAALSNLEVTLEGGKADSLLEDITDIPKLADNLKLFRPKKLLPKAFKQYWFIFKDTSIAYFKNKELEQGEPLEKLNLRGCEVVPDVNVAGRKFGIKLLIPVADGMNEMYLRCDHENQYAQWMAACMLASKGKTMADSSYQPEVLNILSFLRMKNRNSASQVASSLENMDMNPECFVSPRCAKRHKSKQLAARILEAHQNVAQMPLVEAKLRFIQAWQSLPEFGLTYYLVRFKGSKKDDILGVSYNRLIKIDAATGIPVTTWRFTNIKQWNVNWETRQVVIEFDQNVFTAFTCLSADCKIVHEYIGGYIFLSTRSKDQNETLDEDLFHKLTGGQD

Flag-Kindlin-1-C = target: T3, Flag-Kindlin-1-C (UniProt Q9BQL6); assay: as above
T3 sequence: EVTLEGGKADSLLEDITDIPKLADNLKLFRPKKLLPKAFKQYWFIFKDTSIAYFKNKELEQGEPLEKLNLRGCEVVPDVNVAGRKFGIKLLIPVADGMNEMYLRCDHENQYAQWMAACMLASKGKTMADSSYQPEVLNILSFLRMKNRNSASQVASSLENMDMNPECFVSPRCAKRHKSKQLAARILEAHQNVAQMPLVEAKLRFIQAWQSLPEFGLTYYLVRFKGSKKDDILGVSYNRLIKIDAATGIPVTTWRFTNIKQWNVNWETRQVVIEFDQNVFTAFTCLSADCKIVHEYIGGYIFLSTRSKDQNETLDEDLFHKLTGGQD

binding [1]: binds | binding (Flag-Kindlin-1): binds | binding (Flag-Kindlin-1-C): binds
B1: TGF-β receptor I (endogenous) (receptor, UniProt P36897 34-503)
chain: LQCFCHLCTKDNFTCVTDGLCFVSVTETTDKVIHNSMCIAEIDLIPRDRPFVCAPSSKTGSVTTTYCCNQDHCNKIELPTTVKSSPGLGPVELAAVIAGPVCFVCISLMLMVYICHNRTVIHHRVPNEEDPSLDRPFISEGTTLKDLIYDMTTSGSGSGLPLLVQRTIARTIVLQESIGKGRFGEVWRGKWRGEEVAVKIFSSREERSWFREAEIYQTVMLRHENILGFIAADNKDNGTWTQLWLVSDYHEHGSLFDYLNRYTVTVEGMIKLALSTASGLAHLHMEIVGTQGKPAIAHRDLKSKNILVKKNGTCCIADLGLAVRHDSATDTIDIAPNHRVGTKRYMAPEVLDDSINMKHFESFKRADIYAMGLVFWEIARRCSIGGIHEDYQLPYYDLVPSDPSVEEMRKVVCEQKLRPNIPNRWQSCEALRVMAKIMRECWYANGAARLTALRIKKTLSQLSQQEGIKM
